In publication PMC4336329 (PLoS ONE, 2015):
Out of some 310,000 compounds screened, about 2,200 (0.71%) showed an effect of 50% or more. Effects have a minus sign here. The list shows a part of the results.

molecular target: human ether-à-go-go-related gene (hERG) potassium channel (human, UniProt Q12809); assay: primary screen, population patch clamp on CHO cells stably expressing hERG
Sequence (Q12809 whole entry, looked up): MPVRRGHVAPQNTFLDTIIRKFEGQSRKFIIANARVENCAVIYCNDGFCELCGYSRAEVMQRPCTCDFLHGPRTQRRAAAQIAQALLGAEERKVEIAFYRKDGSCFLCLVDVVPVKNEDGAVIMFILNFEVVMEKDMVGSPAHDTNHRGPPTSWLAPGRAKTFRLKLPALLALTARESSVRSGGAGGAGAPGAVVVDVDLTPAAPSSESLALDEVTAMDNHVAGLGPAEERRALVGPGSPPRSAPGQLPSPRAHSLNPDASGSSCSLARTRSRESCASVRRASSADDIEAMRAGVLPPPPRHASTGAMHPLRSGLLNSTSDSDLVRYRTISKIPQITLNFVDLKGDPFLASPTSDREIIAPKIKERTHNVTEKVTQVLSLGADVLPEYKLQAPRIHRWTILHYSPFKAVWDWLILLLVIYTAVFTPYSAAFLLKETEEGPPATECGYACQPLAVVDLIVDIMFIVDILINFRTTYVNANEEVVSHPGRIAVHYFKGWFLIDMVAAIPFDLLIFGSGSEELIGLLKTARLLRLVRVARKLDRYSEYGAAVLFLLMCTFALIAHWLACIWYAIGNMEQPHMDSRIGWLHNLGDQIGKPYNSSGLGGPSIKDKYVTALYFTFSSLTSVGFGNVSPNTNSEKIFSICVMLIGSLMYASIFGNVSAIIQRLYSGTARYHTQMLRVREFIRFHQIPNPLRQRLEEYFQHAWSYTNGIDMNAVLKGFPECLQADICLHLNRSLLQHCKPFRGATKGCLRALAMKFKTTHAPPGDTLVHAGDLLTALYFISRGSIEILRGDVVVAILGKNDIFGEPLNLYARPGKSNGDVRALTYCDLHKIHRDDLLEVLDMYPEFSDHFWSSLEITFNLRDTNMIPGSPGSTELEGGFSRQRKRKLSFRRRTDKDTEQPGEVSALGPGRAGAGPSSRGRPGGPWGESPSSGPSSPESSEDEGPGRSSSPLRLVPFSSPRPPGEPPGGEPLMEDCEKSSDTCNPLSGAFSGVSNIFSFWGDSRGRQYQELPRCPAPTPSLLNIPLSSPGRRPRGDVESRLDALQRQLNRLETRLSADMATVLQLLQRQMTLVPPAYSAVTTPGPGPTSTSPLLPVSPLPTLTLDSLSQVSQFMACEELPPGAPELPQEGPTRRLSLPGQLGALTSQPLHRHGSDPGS

SMILES	hERG current change (%, negative = inhibition) at 1uM [%]
CN1CCCN(C(=O)CNC(=O)Cc2ccccc2)CC1	7.6
Cc1cc(C=C2C(=O)c3ccccc3C2=O)c(C)n1-c1ccccc1	11.3
COc1ccc(NC(=O)c2ccc(CNc3c(N4CCCC4)c(=O)c3=O)cc2)cc1Cl	0.701
N#Cc1c(N)nc2c(c1-c1ccncc1)CCCC2	3.94
Cc1sc2ncn(CC(=O)NCCCC(=O)N3CCCCC3)c(=O)c2c1C	11.5
COc1ccc(OC)c(NC(=O)c2ccc(NS(=O)(=O)c3c(C)noc3C)cc2)c1	5.79
CC(=O)N/C(=C/c1ccc(OS(=O)(=O)c2ccc(C)cc2)cc1)C(=O)Nc1ccc(C(=O)O)cc1	8.8
COc1cccc2cc(C(C)=O)c(=O)oc12	10.7
N#CC1=C(N)N(c2ccccc2)C(c2cccc([N+](=O)[O-])c2)C1(C#N)C#N (stereo not drawn)	0.431
N#Cc1c(NC(=O)CSc2ccccn2)oc(-c2ccccc2)c1-c1ccccc1	6.16
Cc1ccc(NCc2nnc(SCC(N)=O)o2)c(C)c1	9.77
Cc1cc(Cl)ccc1NC(=O)CCC(=O)O	9.69
O=C1c2ccccc2-c2c1cccc2C(=O)N1CCCCC1	-2.14
COc1ccc(-c2sc3ccc(N4CCOCC4)cc3c2-c2ccc(OC)c(F)c2)cc1	7.97
Nc1nc(NCc2ccc(Cl)cc2)nc(NCCO)c1[N+](=O)[O-]	8.01
Cc1nc(-c2ccc(F)cc2)c(CC(=O)N2CCN(S(=O)(=O)c3ccc(F)cc3)CC2)s1	7.89
Cc1ccc(S(=O)(=O)N2CCC(=O)N(C(COCc3ccc(Cl)c(Cl)c3)Cc3ccccc3)CC2)cc1 (stereo not drawn)	12.2
CC(/C=C1\SC(=S)N(CCCC(=O)Nc2ccc(C(=O)O)cc2)C1=O)=C\c1ccccc1	7.78
CCS(=O)(=O)c1nc(S(=O)(=O)c2ccc(Cl)cc2)c(NCc2ccco2)s1	15.9
Cc1cc(NS(=O)(=O)c2ccc(NC(=O)c3ccccc3C)cc2)no1	14.2
Cc1cc(C)cc(OC(=O)CN2C(=O)c3ccccc3C2=O)c1	11.8
COc1ccc(C)cc1NC(=O)CN1C(=O)C2CC=CCC2C1=O (stereo not drawn)	14.9

SMILES	hERG current change (%, negative = inhibition) at 1uM [%]
Cc1ccc(CSC(Nc2ccc(F)cc2)=C(C#N)C#N)cc1	17.1
CN(C(=O)COC(=O)c1cc2c(s1)CCCCC2)c1ccccc1	3.63
CCC(CC)C(=O)Nc1nnc(S(=O)(=O)N(CC)c2ccc(OC)cc2)s1	6.29
Cc1cc(Cl)ccc1C(=O)C1CCCN(C(=O)c2ccc3ncccc3c2)C1 (stereo not drawn)	10.3
Cn1cc(Br)c(C(=O)Nc2c(F)c(F)c(F)c(F)c2F)n1	0.502
Cn1ccnc1SCC(=O)N1CCN(S(=O)(=O)c2ccccc2)CC1	4.93
Cc1ccc(N(CC(=O)N2CCN(C3CCCCC3)CC2)S(=O)(=O)c2cccnc2)cc1	-17
CC(C)CCN1CCNC(=O)C1CC(=O)N(C)CCCN1CCOCC1 (stereo not drawn)	12.1
O=C(O)c1ccccc1C(=O)c1ccc2c(c1)N(Cc1cccc(F)c1)C(=O)CO2	5.56
C=CCN(CC=C)Cc1nc(N)nc(Nc2ccccc2C)n1	6.26
COc1ccc(N2CCSC2C(=O)NN)cc1 (stereo not drawn)	3.32
N#C/C(=C/c1ccccc1)C(=O)OCC(=O)Nc1ccccc1[N+](=O)[O-]	9.53
CCOC(=O)N1CCN(C(=O)c2cc3cc(C)ccc3[nH]2)CC1	13.9
COc1ccc2nc(-c3ccccc3)cc(C(=O)N3CCC3)c2c1	4.52
Cc1ccc(-c2c(C)sc3nc[nH]c(=O)c23)cc1C	14.6
O=C(c1ccc2c(=O)n3c(nc2c1)CCCCC3)N1CCN(Cc2ccccc2)CC1	1.78
O=C(CSc1ccccc1C(=O)NCCCN1CCCC1=O)NCc1ccco1	7.26
Cc1cc(CNC(=S)Nc2cccc(Cl)c2Cl)nn1C	17.2
CC1=NNC(=O)C1CC(=O)N/N=C/C(Br)=C/c1ccccc1 (stereo not drawn)	9.59
CCC(C)/C(C)=N/NC(=O)c1cn(-c2ccccc2)nc1-c1ccccc1 (stereo not drawn)	12.9
Cc1noc(C)c1COc1cccc(C(=O)N(C)Cc2nc3ccccc3c(=O)[nH]2)c1	-3.83
CCCCNC(=S)NNC(=O)c1csc2c1CCC(C)C2 (stereo not drawn)	3.52

SMILES	hERG current change (%, negative = inhibition) at 1uM [%]
CN1CCN(C(=S)C(=O)Nc2ccc(Br)cc2)CC1	1.66
CNC(=O)CN(c1cc(OCCOC)c(Cl)cc1Cl)S(=O)(=O)c1ccc(OC)cc1	7.02
COc1ccc(NC(=O)CSc2ccccc2)cc1S(=O)(=O)N1CCOCC1	1.15
O=C(CCCn1c(=O)[nH]c2ccsc2c1=O)Nc1ccc(F)cc1	3.54
Cc1ccccc1CN1N=C(/C=C/c2ccccc2)CCC1=O	11.3
O=C(/C=C/c1ccccc1)Nc1nnc(-c2ccco2)o1	-2.4
O=C(Nc1cccc(Br)c1)c1ccc2nc(N3C(=O)CCC3=O)sc2c1	16.6
O=C(CN(Cc1ccccc1)C(=O)CCl)c1cccc(Br)c1	3.08
CSCCC(NC(=O)C1CCCCC1)c1nc2ccccc2[nH]1 (stereo not drawn)	9.36
COC1CCN(Cc2c(C(=O)N3C[C@@H](C)O[C@@H](C)C3)nc3ccc(Cl)cn23)CC1	21.8
COc1ccccc1N1CCN(/N=C/c2cccc(OC)c2O)CC1	13.3
CCN1CCN(Cc2ccc(NC(=O)c3cc(NC(=O)c4cncc(-c5cccs5)c4)cc(OC)c3)cc2C(F)(F)F)CC1.O=C(O)C(F)(F)F	11.1
CCc1ccc(C(=O)NNC(=O)CCc2nc3ccccc3c(=O)[nH]2)cc1	-4.62
Cc1cc(Cl)cc(C)c1OCCCCn1ccnc1	-9.14
O=C(CN1C(=O)c2cccnc2Oc2ccc(Cl)cc21)Nc1ccc(F)cc1	14.1
CCCC1=[N+](CC(=O)c2ccc(C)cc2)CCn2cccc21.[Br-]	14.1
CCOC(=O)c1cc(NC(=O)CN2CCCC2)cc(C(=O)OCC)c1	14.5
CCOC(=O)CC(=O)NC(CC(=O)OC)c1ccc(C(C)C)cc1 (stereo not drawn)	-7.62
N#Cc1ccccc1S(=O)(=O)N1CCN(C(=O)C2COc3ccccc3O2)CC1 (stereo not drawn)	-1.92
C#Cc1ccc([C@@H]2C=C(C(=O)NC3CC3)O[C@H](OCc3ccc(CO)cc3)C2)cc1	10.1
O=C(NCc1ccccn1)Nc1ccc(F)c(Cl)c1	-12.9
O=C(Nc1cccc(S(=O)(=O)N2CCOCC2)c1)c1ccccn1	3.86

SMILES	hERG current change (%, negative = inhibition) at 1uM [%]
COc1ccc(OC)c(-c2csc(NC(=O)C3c4ccccc4Oc4ccccc43)n2)c1	0.107
Cc1ccccc1NS(=O)(=O)c1ccc(C(=O)NCCCN2CCOCC2)cc1	17.5
O=C(CSc1nc2sc3c(c2c(=O)n1-c1ccccc1)CCCC3)NCc1ccco1	14.3
Cc1ccc(OCC(=O)N2CCCCCCC2)cc1	9.55
COc1cc(OC)cc(C(=O)NCC(=O)NC(C)CCc2ccccc2)c1 (stereo not drawn)	4.24
CCCN1Cc2cccc(C(=O)NCCCOC(C)C)c2C1=O	7.23
COc1ccc(/C=N/NC(=O)C(=O)N2CCCC2)cc1OC	3.19
Cc1ccc(C(=O)NC2c3ccccc3-c3ccccc32)cc1	16.7
CCOc1ccc(-c2cccc(NC(=O)COc3ccccc3)c2)nn1	-5.13
CCN1CCN(S(=O)(=O)c2ccc(C(=O)Nc3ccccc3)cc2)CC1	3.38
Cn1c(N)c(N2CCN(c3ccccc3)CC2)c(=O)[nH]c1=O	18.9
CN(C)c1ccc(/C=C2\SC(=O)N(CCc3nnc(N)s3)C2=O)cc1	-1.13
CC(O)CNC12CC3CC(CC(C3)C1)C2 (stereo not drawn)	8.94
CCCCC(=O)Nc1ccc(NC(=S)NC(=O)c2ccco2)cc1OC	12.7
COc1cccc(NC(=O)CN(C)C(=O)CN2C(=O)c3ccc([N+](=O)[O-])cc3C2=O)c1	11
N#Cc1c(N)c(C(=O)c2ccccc2)n2c1CCC2	13.3
CCOC(=O)c1c(NC(=O)Cn2nc(C(F)(F)F)cc2C)sc(C)c1C	-3.96
Cc1ccc(CNC(=O)CN(C(=O)N2CCN(C)CC2)S(=O)(=O)c2ccc(C)cc2)cc1	17
Cc1cccc(OCCn2nnc3ccccc32)c1C	11.8
O=C(Nc1ccc2nc3n(c(=O)c2c1)CCCC3)c1ccc(Cl)nc1	10.7
O=C(CSc1nnnn1-c1ccccc1)Nc1ncc(Cc2ccccc2Cl)s1	11.8
